In all, about 420,000 compounds went through this assay and about 50,000 (12%) were called active. Inconclusive means that the source gave no clear call. Such entries were picked first, then a sample of the others. Calls follow the shape of the dose curve; as a rule, active = well fitted inhibition curve with a large enough effect; inconclusive = small, poorly fitted or top-dose-only effect; inactive = flat fitted curve, though single readings scatter. Potencies of inconclusive entries are left out as doubtful fits.
assay: qHTS for Inhibitors of human tyrosyl-DNA phosphodiesterase 1 (TDP1): qHTS in cells in presence of CPT; details: chicken DT40 Tdp1-/-;hTDP1 cells + 20 nM CPT, ATP luminescence, 48 h; series mostly up to 46.2 µM; also: nearly all actives have a fitted effect of over 55% in size
Procedure, shortened: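 Chicken DT40 Tdp1-/- cells complemented with human TDP1, 400 cells/well, exposed to compounds plus 20 nM camptothecin for at least 48 h at 37 C; viability read as ATP content by CellTiter-Glo luminescence.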
Potency is read from the fitted curve at half-maximal effect; tags tell the direction and shape of the fitted curve.

SMILES | Potency
COc1ccccc1-c1nc2c(c(SCC(=O)Nc3ccc(C)c(C)c3)n1)Cc1c(CO)cnc(C)c1O2 | active: 16.4 µM
O=C(CN1CCN(c2ccccn2)CC1)Nc1nc2ccccc2s1 | inconclusive [inhibitor, single point]
Cc1ccccc1NC(=O)Cn1c(=O)oc2cc(Br)ccc21 | inconclusive [inhibitor, single point]
CNC(=O)c1sccc1SCc1c(Cl)cccc1Cl | inconclusive [inhibitor, partial curve]
Cc1ccc(C)c(NC(NC(=O)c2cccnc2)C(Cl)(Cl)Cl)c1 (stereo unspecified) | active: 23.1 µM
CCOC(=O)C1=C(c2ccccc2)O/C(=C(/C(=O)OC)C(F)(F)F)S1 | inactive
CCCn1nnnc1NC(=O)c1cccs1 | inconclusive [inhibitor, single point]
CC[C@]12c3[nH]c4cc(-c5ccco5)ccc4c3CCN1C(=O)[C@@H](CC(=O)NCCCN(C)C)C[C@@H]2C(=O)N1CCN(C(=O)c2ccco2)CC1 | inactive
CCn1c2ccccc2c2cc(NC(=O)N3CCCCC3)ccc21 | active: 18.4 µM
Clc1cccc(Cc2c(-c3cccc(Cl)c3)nc3c4ccccc4ccn23)c1 | inconclusive [inhibitor, single point]
COc1ccc(S(=O)(=O)N[C@H](C(=O)O)C(C)C)cc1 | inactive
O=C(c1cc2c(s1)-c1ccccc1OC2)N1CCN(c2ccccc2F)CC1 | inconclusive [inhibitor, single point]
CCCCn1nnnc1C(c1ccccc1)N1CCN(c2cc(C)ccc2C)CC1 (stereo unspecified) | inconclusive [inhibitor, single point]
CC(NC(=S)Nc1ccc(S(N)(=O)=O)cc1)c1ccc2c(c1)OCO2 (stereo unspecified) | inconclusive [inhibitor, partial curve, poor fit]
Cc1cccc(N2CCN(C(=O)c3ccccc3SCC(=O)N3CCCC3)CC2)c1C | active: 9.2 µM
C=CCn1c(SCc2nc3ccccc3c(=O)[nH]2)nc2sc3c(c2c1=O)CCCC3 | inconclusive [inhibitor, partial curve]
CN(C)C(CNC(=O)c1ccc(C2SCCS2)cc1)c1ccccc1 (stereo unspecified) | inconclusive [inhibitor, single point]
Cc1c(C)n(C)c2ccc(C(=O)NCCCN3CCCCC3C)cc12 (stereo unspecified) | inactive
O=S(=O)(c1ccccc1)N1CCC2(CC1)CN(c1ccccc1)C2 | inactive
CCOC(=O)C1CCCN(c2cc(C)nc3c(-c4ccccc4OC)c(C)nn23)C1 (stereo unspecified) | active: 13 µM
Cc1ccc(S(=O)(=O)N2CCC(=O)N(C(COCc3ccc(Cl)cc3)Cc3ccccc3)CC2)cc1 (stereo unspecified) | inconclusive [inhibitor, single point]
Cc1ccc(OCCN2C(=O)OC(C)(C)C2(C)O)cc1 (stereo unspecified) | inactive
Brc1ccc2c(c1)OCCOCCOCCOCCOCCOCCO2 | inconclusive [inhibitor, single point]

SMILES | Potency
CC(C)C(=O)c1cn(CC(=O)NCc2ccc3c(c2)OCO3)c2ccccc12 | inactive
Cc1sc2nc(CSCC(=O)Nc3c(F)cccc3F)[nH]c(=O)c2c1C | active: 11.6 µM
CC1=C(C(=O)OC(C)C)C(c2cccc([N+](=O)[O-])c2)C(C(=O)OC2CN(C(c3ccccc3)c3ccccc3)C2)=C(N)N1 (stereo unspecified) | inconclusive [inhibitor, single point]
CCn1c(NC(=S)Nc2ccccc2)nc2ccccc21 | active: 5.17 µM
Cc1ccc(C)c(NC(=O)Cn2cc(C(=O)c3ccco3)c3ccccc32)c1 | inconclusive [inhibitor, partial curve]
CN(Cc1cccnc1)C(=O)CNC(=O)COc1ccccc1 | inactive
Cc1nc(SCC(=O)N2CCc3ccccc3C2)c2c(C)c(C)sc2n1 | inconclusive [inhibitor, single point]
CCCCn1c(N)c(N(CC(C)C)C(=O)c2cccs2)c(=O)[nH]c1=O | inactive
CCCCN(CC)CCCNC(=O)c1nn(C)c2c1CS(=O)(=O)c1ccccc1-2 | inactive
CCOc1ccccc1NC(=S)NNS(=O)(=O)c1c(C)cc(C)cc1C | inactive
Cc1ccc(C)c(Cn2nnc3c(=O)[nH]c(C4CCN(S(=O)(=O)c5ccc(S(=O)(=O)N(C)C)cc5)CC4)nc32)c1 | active: 18.4 µM
COc1ccc(Cl)cc1C1=CC(=O)C[C@H](c2ccc(F)cc2)C1 | inconclusive [inhibitor, single point]
COc1ccc(NC(=O)CN(c2ccc(OC)c(Cl)c2)S(=O)(=O)c2ccccc2)c(OC)c1 | inconclusive [inhibitor, partial curve, poor fit]
Cc1ccc(CN2C(=O)N/C(=C\c3cccn3-c3cccc(C(=O)O)c3)C2=O)cc1 | active: 8.2 µM
NC(CCc1ccccc1)c1csc(Nc2ccccn2)n1 (stereo unspecified) | inconclusive [inhibitor, single point]
OC(CN1C2=NCCCN2c2ccccc21)c1ccc(Cl)cc1 (stereo unspecified) | inconclusive [inhibitor, single point]
CCC1(C2CCN(C(=O)c3cccc(F)c3F)CC2)NC(=O)N(CCc2scnc2C)C1=O (stereo unspecified) | inactive
O=C(NNC(=O)c1cc(-c2ccc(Cl)cc2Cl)nc2ccccc12)Nc1ccccc1 | inconclusive [inhibitor, single point]
O=C(Cn1c(=S)[nH]c2ccccc21)c1ccccc1 | inconclusive [inhibitor, single point]
O=C(c1ccc(Cl)c(S(=O)(=O)N2CCc3ccccc3C2)c1)N1CCN(c2ccccc2)CC1 | active: 3.66 µM
CCCCCOc1c(Cl)cc(C(=O)N(Cc2ccc(C)o2)C2CCS(=O)(=O)C2)cc1Cl (stereo unspecified) | active: 18.4 µM
Cc1c(O)c(S(=O)c2ccccc2)c(=O)n(-c2ccccc2)c1-c1ccccc1 (stereo unspecified) | inconclusive [inhibitor, single point]
C=CCn1c(SCC(=O)N(C)CC(=O)Nc2ccc(C)cc2)nnc1-c1ccncc1 | inactive

From PubChem BioAssay AID686979 (National Center for Advancing Translational Sciences (NCATS), 2013)
